Experimental data: PubChem BioAssay AID588795 (National Center for Advancing Translational Sciences (NCATS), 2011)
Where “and” joins values, the source holds several entries; their conditions need not be identical. Equal values may be shown once. Screen size: about 390,000 compounds; about 1,400 (0.36%) were called active. The inconclusive results got no clear call from the source; some entries with a clear call stand among them for comparison. The call rests on the fitted dose curve; in most records, active means well fitted inhibition curve with a large enough effect; inconclusive means small, poorly fitted or top-dose-only effect; inactive means no such curve, though single readings can be large or run the other way. Potencies of inconclusive entries are doubtful fits and often do not repeat.
Further: nearly all actives have a fitted effect of over 65% in size.
Potency means the concentration at half of the fitted maximal effect; tags describe the fitted curve by direction and shape.

What follows are compounds tested against Flap endonuclease 1 (Homo sapiens) (UniProt P39748) (assay: qHTS Assay for the Inhibitors of Human Flap endonuclease 1 (FEN1).). Details: Recombinant FEN1 flap cleavage, fluorescence, 15 min; series mostly up to 114 µM.
Chain of UniProt P39748 (P39748 whole entry, looked up): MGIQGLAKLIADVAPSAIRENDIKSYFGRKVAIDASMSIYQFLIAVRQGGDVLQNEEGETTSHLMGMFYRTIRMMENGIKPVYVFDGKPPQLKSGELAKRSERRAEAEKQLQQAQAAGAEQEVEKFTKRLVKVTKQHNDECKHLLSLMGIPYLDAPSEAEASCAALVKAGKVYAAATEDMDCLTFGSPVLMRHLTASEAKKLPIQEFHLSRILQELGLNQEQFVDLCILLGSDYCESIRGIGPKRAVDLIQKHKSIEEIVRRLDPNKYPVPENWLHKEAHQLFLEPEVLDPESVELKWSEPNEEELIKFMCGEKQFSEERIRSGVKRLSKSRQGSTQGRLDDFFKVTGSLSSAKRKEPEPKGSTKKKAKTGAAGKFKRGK
In short: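 FEN1 at 10 nM, compound pretreatment for 15 min (room temperature), 50 nM final substrate to initiate; endpoint reads at 0 and 15 min; DMSO-only plates used as vehicle background.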
With `C/C=C1/C[C@@H](C)[C@@](C)(O)C(=O)OCC2=CCN3CC[C@@H](OC1=O)[C@@H]23` the Potency was inconclusive: 100 µM [inhibitor, partial curve, poor fit]. For `CN(C)C(=O)Oc1ccc2c(c1)O/C(=C\c1ccc(Cl)cc1)C2=O`, the Potency was inconclusive: 39.8 µM [inhibitor, partial curve, poor fit]. For `C[N+](C)(C)CCCCCCCCCC[N+](C)(C)C`, the Potency was inconclusive: 8.44 µM [inhibitor, single point]. For `COc1ccc(-n2c(O)c(/C=C3\C=Nc4ccc(Br)cc43)c(=O)[nH]c2=O)cc1`, the Potency was “inactive”. For `O=C(Nc1cccc(C(F)(F)F)c1)c1cccn(Cc2ccc3c(c2)OC(F)(F)O3)c1=O`, the Potency was inconclusive: 89.1 µM [inhibitor, partial curve, poor fit]. In the case of `CN1CCN(c2ccc(/C=C3\C(=O)NC(=S)N(c4cccc(Br)c4)C3=O)o2)CC1`, the Potency is reported as inconclusive: 89.1 µM [inhibitor, partial curve, poor fit]. With `O=C1NC(=O)N(c2ccccc2F)C(=O)/C1=C/c1cn(CC(=O)N2CCOCC2)c2ccccc12` the Potency was inconclusive: 89.1 µM [inhibitor, single point]. In the case of `O=C(O)COc1ccc(Br)cc1C(c1c(C(=O)O)[nH]c2ccccc12)c1c(C(=O)O)[nH]c2ccccc12`, the Potency is reported as inconclusive: 89.1 µM [inhibitor, partial curve, poor fit]. In the case of `NC(=S)/N=C/c1c(O)[nH]c(=O)[nH]c1=O`, the Potency is reported as inconclusive: 8.91 µM [inhibitor, full curve, poor fit]. `O=C1NC(=O)N(c2ccc(Cl)cc2)C(=O)/C1=C\c1ccc(Sc2nc3ccccc3[nH]2)o1` was tested, and the Potency was active: 79.4 µM. For `Cn1cccc1/C=C1\C(=O)NC(=O)N(Cc2ccccc2Cl)C1=O`, the Potency was inconclusive: 50.1 µM [inhibitor, partial curve]. In the case of `Cc1cc(C)cc(N2C(=O)/C(=C\c3ccc(N4CCN(C)CC4)o3)C(=O)NC2=S)c1`, the Potency is reported as inconclusive: 79.4 µM [inhibitor, single point]. In the case of `CC(=O)N1CCN(c2ccc(OC[C@H]3CO[C@](Cn4ccnc4)(c4ccc(Cl)cc4Cl)O3)cc2)CC1`, the Potency is reported as inconclusive: 4.23 µM [inhibitor, partial curve, poor fit]. In the case of `C[C@]12Cc3cn4c(nc3C=C1CCC1C2CC[C@@]2(C)[C@H]1CC[C@@]2(O)C#N)nc1ccccc14` (some centres not stated), the Potency is reported as inconclusive: 37.7 µM [inhibitor, single point]. With `CCC(C)/C=C(C)/C=C/C1=CC2=C(Cl)C(=O)C(C)(OC(C)=O)C(=O)C2=CO1` (configuration not stated) the Potency was “inactive”. With `NCCc1cc(O)c(O)cc1O` the Potency was active: 17.8 µM and active: 25.1 µM. With `O=C(N/N=C/c1c(O)n(Cc2ccccc2)c(=O)[nH]c1=O)c1ccccc1O` the Potency was inconclusive: 56.2 µM [inhibitor, partial curve, poor fit]. With `CN1CCN(c2ccc([N+](=O)[O-])c3no[n+]([O-])c23)CC1` the Potency was inconclusive: 100 µM [inhibitor, single point]. For `Cc1c(C(=O)O)cccc1-n1c(C)cc(/C=C2\C(=O)NC(=O)N(c3ccc4c(c3)OCO4)C2=O)c1C`, the Potency was inconclusive: 39.8 µM [inhibitor, partial curve, poor fit]. With `O=C1NC(=O)N(c2ccccc2)C(=O)/C1=C/c1ccc(Sc2ccccc2)o1` the Potency was “inactive”. `CCOc1ccc(CN(CCc2ccc3c(c2)OCO3)Cc2cc(OC)ccc2O)cc1` was tested, and the Potency was “inactive”. `C[n+]1c2cc(N)ccc2cc2ccc(N)cc21` was tested, and the Potency was active: 3.16 µM and active: 8.91 µM. For `COc1ccc2c(c1)c(C(=O)O)c(C)n2CC(C)C`, the Potency was “inactive”. With `CCOc1cccc(=NC2CCCCC2)c2c(C)[nH]c(C)c12` the Potency was inconclusive: 56.2 µM [inhibitor, partial curve, poor fit]. For `COc1ccc(CNC(=O)/C=C/c2ccc3[nH]cc(CCN(C)C)c3c2)cc1`, the Potency was inconclusive: 50.1 µM [inhibitor, partial curve, poor fit]. `CCOc1ccc(N2C(=O)/C(=C/c3ccco3)C(=O)NC2=S)cc1` was tested, and the Potency was inconclusive: 2.82 µM [inhibitor, full curve, poor fit]. `NNCc1ccccc1` was tested, and the Potency was inconclusive: 89.1 µM [inhibitor, single point]. For `Cc1nn(Cc2ccccc2)c(C)c1C=C1C(=O)NC(=O)NC1=O`, the Potency was “inactive”. `NC(N)=NCCC[C@H](N)C(=O)O` was tested, and the Potency was “inactive”. `COc1ccc(N2C(=O)/C(=C/c3ccco3)C(=O)NC2=S)cc1` was tested, and the Potency was inconclusive: 12.6 µM [inhibitor, full curve, poor fit]. For `CC1CCCC(C)N1C(=O)CSc1nnc(NC(=O)c2cccs2)s1` (configuration not stated), the Potency was inconclusive: 39.8 µM [inhibitor, partial curve, poor fit]. With `COc1ccc(Cn2c(O)c(/C=N/NC(=O)c3ccccc3)c(=O)[nH]c2=O)cc1` the Potency was inconclusive: 20 µM [inhibitor, full curve]. With `CCOC(=O)c1c(-n2c(C)cc(C=C3C(=O)NC(=S)NC3=O)c2C)sc2c1CCCC2` the Potency was inconclusive: 10 µM [inhibitor, partial curve, poor fit]. In the case of `CCn1c(O)c(C=Nc2ccc(S(N)(=O)=O)cc2)c(=O)[nH]c1=S`, the Potency is reported as inconclusive: 79.4 µM [inhibitor, partial curve, poor fit]. With `COc1cccc(N2C(=O)/C(=C/c3ccc(C)o3)C(=O)NC2=S)c1` the Potency was inconclusive: 31.6 µM [inhibitor, full curve, poor fit]. `O=C1NC(=O)N(Cc2ccc(F)cc2)C(=O)/C1=C\c1ccoc1` was tested, and the Potency was inconclusive: 56.2 µM [inhibitor, partial curve, poor fit]. `O=C1NC(=S)SC1=Cc1ccc(N(CCCl)CCCl)cc1` was tested, and the Potency was inconclusive: 79.4 µM [inhibitor, partial curve]. With `COc1cc(/C=C/c2nc3ccccc3c(=O)n2-c2cccc(O)c2)ccc1O` the Potency was inconclusive: 56.2 µM [inhibitor, partial curve, poor fit]. `Cc1cc(/C=C2\C(=O)NC(=O)N(c3cccc(Br)c3)C2=O)c(C)n1C` was tested, and the Potency was “inactive”. For `COc1ccc2[nH]c3c(c2c1)CCN=C3C`, the Potency was active: 50.1 µM. For `CCCCNC(=O)c1c(N)n(CCCOC)c2nc3ccccc3nc12`, the Potency was inconclusive: 79.4 µM [inhibitor, single point]. `COC(=O)C1=C(c2ccc(F)cc2OCc2ccccc2)C[C@@H]2CC[C@H]1N2C(=O)NCc1cccc(OC)c1` was tested, and the Potency was “inactive”. For `Oc1ccc(/C=N/NP(=S)(c2ccccc2)c2ccccc2)c(O)c1O`, the Potency was inconclusive: 89.1 µM [inhibitor, single point]. With `CCOC(=O)c1cc(-c2ccccc2)n(CCCC(=O)Nc2ccc(C)c(C)c2)c1C` the Potency was inconclusive: 35.5 µM [inhibitor, partial curve, poor fit]. For `O=C(O)COc1ccccc1/C=C1\C(=O)NC(=O)N(CCC2=CCCCC2)C1=O`, the Potency was inconclusive: 89.1 µM [inhibitor, single point]. With `CC[C@@H](C(N)=O)N1CCCC1=O` the Potency was inconclusive: 37.7 µM [inhibitor, single point]. `COc1cc(/C=C2/SC(=S)N(Cc3ccccc3)C2=O)ccc1OCC(=O)O` was tested, and the Potency was inconclusive: 89.1 µM [inhibitor, partial curve, poor fit]. With `Cc1cc(C)cc(N2C(=O)NC(=O)/C(=C\c3cccn3-c3ccc(Cl)cc3)C2=O)c1` the Potency was “inactive”. In the case of `CC(C)CCNC(=O)c1c(N)n(CC2CCCO2)c2nc3ccccc3nc12` (configuration not stated), the Potency is reported as inconclusive: 56.2 µM [inhibitor, partial curve, poor fit]. `O=C(COc1ccccc1/C=C1/NC(=O)NC1=O)Nc1ccccc1` was tested, and the Potency was inconclusive: 89.1 µM [inhibitor, single point]. For `C[N+]1(C)[C@@H]2CC[C@H]1CC(OC(=O)[C@@H](CO)c1ccccc1)C2` (some centres not stated), the Potency was “inactive”. With `O=C1NC(=O)C(=Cc2ccc(-c3ccccc3[N+](=O)[O-])o2)C(=O)N1` the Potency was inconclusive: 89.1 µM [inhibitor, single point]. `O=C1NC(=O)C(=Cc2ccc(N3CCN(C(=O)c4ccccc4)CC3)c([N+](=O)[O-])c2)C(=O)N1` was tested, and the Potency was “inactive”. In the case of `COc1cc(Cn2c(N)c(C(=O)NCc3ccco3)c3nc4ccccc4nc32)cc(OC)c1OC`, the Potency is reported as inconclusive: 89.1 µM [inhibitor, partial curve, poor fit]. With `CC(C)C[C@H]1CNC(=S)N1CC1CCN(CC2CCC(C(C)(C)C)CC2)CC1` (some centres not stated) the Potency was inconclusive: 89.1 µM [inhibitor, single point]. With `O=C1NC(=O)C(=Cc2ccc(-c3ccc(Cl)cc3)o2)C(=O)N1` the Potency was active: 17.8 µM. In the case of `CC(=O)Nc1ccc(OC(=O)N2CCN(/[N+]([O-])=N/Oc3ccc([N+](=O)[O-])cc3[N+](=O)[O-])CC2)cc1`, the Potency is reported as inconclusive: 39.8 µM [inhibitor, single point]. For `CSc1ncc(/C=C2/C(=O)NC(=O)N(C3CCCCC3)C2=O)cn1`, the Potency was “inactive”. `O=C1NC(=O)C(=Cc2ccc(Sc3ccccc3)o2)C(=O)N1` was tested, and the Potency was inconclusive: 79.4 µM [inhibitor, single point]. `Cc1cccc(N2C(=O)NC(=O)/C(=C/c3ccc([N+](=O)[O-])o3)C2=O)c1` was tested, and the Potency was active: 20 µM. In the case of `O=c1[nH]c(=O)n(-c2ccccc2F)c(O)c1/C=C1\C=Nc2ccccc21`, the Potency is reported as inconclusive: 22.4 µM [inhibitor, full curve, poor fit]. For `NCCNc1ccc([N+](=O)[O-])c2cccnc12`, the Potency was inconclusive: 100 µM [inhibitor, single point].
